21 molecules from the antibiotic and cytotoxicity screens of Wong et al. (2023) can be followed below.

The list shows a part of the results.

The test has as its system S. aureus RN4220. Nature of the test: growth inhibition call (relative growth <= 0.2). The conditions noted are these: 50 µM.
Regarding `COc1ccc(CN(C)C[C@@H]2Oc3ccc(NC(=O)Nc4ccc(C(F)(F)F)cc4)cc3C(=O)N([C@@H](C)CO)C[C@@H]2C)cc1`, the growth inhibition call is “inactive”.

For `CCc1nnc(N)[nH]1`, the growth inhibition call is “inactive”.

With `Cc1ccc(S[C@]2(C(=O)NCCCN(C)C)CC(=O)N(C3Cc4ccccc4C3)[C@@H]2c2ccc(CO)cc2I)cc1`, the growth inhibition call was “inactive”.

With `C[C@@H]1CN([C@@H](C)CO)C(=O)c2cc(NC(=O)CCN3CCOCC3)ccc2O[C@@H]1CN(C)C(=O)Nc1ccccc1`, the growth inhibition call is “inactive”.

On to `C[C@@H]1CCCCO[C@@H](CN(C)C(=O)C2CCCCC2)[C@@H](C)CN([C@H](C)CO)C(=O)c2cc(NC(=O)CCC(F)(F)F)ccc2O1`, for which the growth inhibition call was “inactive”.

`C[C@@H]1CN([C@@H](C)CO)C(=O)c2cc(NC(=O)c3ccncc3)ccc2O[C@@H]1CN(C)Cc1ccc(C(=O)O)cc1`: the growth inhibition call is “inactive”.

For the molecule `C[C@@H]1CCCCO[C@@H](CN(C)CC2CC2)[C@@H](C)CN([C@H](C)CO)C(=O)c2cc(NS(C)(=O)=O)ccc2O1`, the growth inhibition call was “inactive”.

`C[C@@H]1CCCCO[C@H](CN(C)C(=O)C2CCCCC2)[C@@H](C)CN([C@H](C)CO)C(=O)c2cc(NC(=O)CCCCCC(=O)Nc3ccccc3N)ccc2O1`: the growth inhibition call was “inactive”.

On to `C[C@H](CO)N1C[C@H](C)[C@@H](CN(C)S(C)(=O)=O)OCCCC[C@H](C)Oc2ccc(NS(=O)(=O)c3cn(C)cn3)cc2C1=O`, for which the growth inhibition call was “inactive”.

For `CN1C2CCC1CC(OC(=O)c1c[nH]c3ccccc13)C2.Cl` (stereo unspecified), the growth inhibition call was “inactive”.

As to `C[C@H]1CN([C@@H](C)CO)C(=O)Cc2cc(NC(=O)c3ccncc3)ccc2O[C@H]1CN(C)Cc1ccc2c(c1)OCO2`, the growth inhibition call is “inactive”.

For `C[C@@H]1CN([C@@H](C)CO)C(=O)Cc2cc(NC(=O)Nc3ccccc3)ccc2O[C@H]1CN(C)S(=O)(=O)c1cn(C)cn1`, the growth inhibition call was “inactive”.

As for `C[C@@H]1CN([C@H](C)CO)C(=O)c2cccc(NC(=O)c3nc4ccccc4s3)c2O[C@@H]1CN(C)Cc1ccc(Cl)c(Cl)c1`, the growth inhibition call is “inactive”.

In the case of `C[C@H]1CN([C@@H](C)CO)C(=O)Cc2cc(NC(=O)CCN3CCOCC3)ccc2O[C@@H]1CN(C)C(=O)NC1CCCCC1`, the growth inhibition call is “inactive”.

Regarding `CC1(C)S[C@@H]2[C@H](NC(=O)[C@H](N)c3ccccc3)C(=O)N2[C@H]1C(=O)OCOC(=O)[C@@H]1N2C(=O)C[C@H]2S(=O)(=O)C1(C)C`, the growth inhibition call was “active”.

In the case of `Cc1noc(C)c1NC(=O)Nc1cccc2c1O[C@H](CN(C)Cc1ccc(-c3ccccc3)cc1)[C@@H](C)CN([C@H](C)CO)C2=O`, the growth inhibition call is “inactive”.

Turning to `C[C@@H]1CN([C@@H](C)CO)C(=O)c2c(c3ccccc3n2C)-c2ccccc2CO[C@H]1CN(C)S(=O)(=O)c1ccc(C(F)(F)F)cc1`, the growth inhibition call was “inactive”.

On to `C[C@@H]1CN([C@@H](C)CO)S(=O)(=O)c2ccc(-c3ccccc3F)cc2O[C@@H]1CN(C)S(C)(=O)=O`, for which the growth inhibition call was “inactive”.

Regarding `C[C@H]1CN([C@@H](C)CO)C(=O)c2ccccc2-c2ccccc2CO[C@@H]1CN(C)C(=O)Nc1ccc(-c2ccccc2)cc1`, the growth inhibition call was “inactive”.

For the molecule `C[C@@H]1CCCCO[C@H](CN(C)Cc2ccc3c(c2)OCO3)[C@@H](C)CN([C@H](C)CO)C(=O)c2cc(NC(=O)Nc3ccc(C(F)(F)F)cc3)ccc2O1`, the growth inhibition call was “inactive”.

For the molecule `Cc1cc(C(=O)Nc2cccc3c2O[C@@H](CN(C)C(=O)Nc2c(C)noc2C)[C@H](C)CN([C@H](C)CO)C3=O)n(C)n1`, the growth inhibition call was “inactive”.
